A compilation of properties of binary mixtures (doi:10.1021/jp403813g)
Some of these densities may be calculated back from excess volumes.

Experiment: xn = mol fraction of the nth substance listed
Conditions: 100 kPa

CS(C)=O + CCCC[n+]1ccn(C)c1.[Cl-]
Conditions | mass density [kg/m3]
313.15 K, x2 = 0 | 1081.4

CS(C)=O + CC[n+]1ccn(C)c1.[Cl-]
x2 = 0
Conditions | mass density [kg/m3]
298.15 K | 1095.4
303.15 K | 1092.4

CCCC[n+]1ccn(C)c1.[Cl-] + CS(C)=O
mass density [kg/m3]
Conditions | x1 = 0.0341 | x1 = 0.2433 | x1 = 0.3705 | x1 = 0.4746 | x1 = 0.7115 | x1 = 0.843 | x1 = 0.9445
298.15 K | – | – | – | 1090.5 | – | – | –
313.15 K | 1083.8 | 1086.8 | 1084 | 1081.4 | 1074.6 | 1070.3 | 1066.9

CC[n+]1ccn(C)c1.[Cl-] + CS(C)=O
mass density [kg/m3]
Conditions | 298.15 K | 303.15 K | 308.15 K | 313.15 K
x1 = 0.0194 | – | – | 1088.1 | 1083.6
x1 = 0.0453 | 1099.3 | – | 1090.8 | –
x1 = 0.0677 | 1101.3 | 1098.5 | 1093.3 | 1089.4
x1 = 0.0984 | 1104.2 | 1101.6 | 1096.8 | –
x1 = 0.1236 | 1106.6 | 1104.1 | 1099.8 | 1096.3
x1 = 0.1619 | 1110.4 | 1108 | 1104.2 | 1101
x1 = 0.2143 | – | 1113.5 | 1110.1 | 1107.3
x1 = 0.2927 | – | – | – | 1116
x1 = 0.3737 | 1129.2 | 1128.3 | 1126 | 1123.9
x1 = 0.4429 | 1133.8 | 1133.3 | 1131.1 | 1129.3
x1 = 0.5264 | 1137.9 | 1137.6 | 1135.6 | 1134
x1 = 0.6072 | – | 1139.9 | 1137.8 | 1136.3
x1 = 0.7477 | – | 1138.7 | 1136.4 | 1134.7
x1 = 0.7986 | 1137.9 | 1136.7 | 1134.1 | 1132.2
x1 = 0.8501 | – | 1133.7 | 1130.9 | 1128.8
x1 = 0.8944 | 1132.7 | 1130.5 | 1127.4 | 1124.9
x1 = 0.9396 | 1129.3 | 1126.4 | 1123.1 | 1120.3
x1 = 0.9694 | 1126.7 | 1123.4 | 1120 | 1116.8
x1 = 1 | 1123 | 1119.5 | 1115.4 | 1111.9
x2 = 0.0071 | 1123.9 | 1120.1 | 1116.5 | 1112.9
